# Test results as given in PubChem BioAssay AID504333 (National Center for Advancing Translational Sciences (NCATS), 2011).
# Screen size: about 360,000 compounds; about 16,000 (4.4%) were called active. Inconclusive means that the source gave no clear call. Such entries were picked first, then a sample of the others. The call rests on the fitted dose curve; in most records, active means well fitted inhibition curve with a large enough effect; inconclusive means small, poorly fitted or top-dose-only effect; inactive means no such curve, though single readings can be large or run the other way. Where the call is inconclusive, the potency comes from a doubtful curve fit.
# Target: Bromodomain adjacent to zinc finger domain protein 2B (Homo sapiens) (UniProt Q9UIF8)
# UniProt Q9UIF8, sequence (Q9UIF8 whole entry, looked up, the tested form may be a part): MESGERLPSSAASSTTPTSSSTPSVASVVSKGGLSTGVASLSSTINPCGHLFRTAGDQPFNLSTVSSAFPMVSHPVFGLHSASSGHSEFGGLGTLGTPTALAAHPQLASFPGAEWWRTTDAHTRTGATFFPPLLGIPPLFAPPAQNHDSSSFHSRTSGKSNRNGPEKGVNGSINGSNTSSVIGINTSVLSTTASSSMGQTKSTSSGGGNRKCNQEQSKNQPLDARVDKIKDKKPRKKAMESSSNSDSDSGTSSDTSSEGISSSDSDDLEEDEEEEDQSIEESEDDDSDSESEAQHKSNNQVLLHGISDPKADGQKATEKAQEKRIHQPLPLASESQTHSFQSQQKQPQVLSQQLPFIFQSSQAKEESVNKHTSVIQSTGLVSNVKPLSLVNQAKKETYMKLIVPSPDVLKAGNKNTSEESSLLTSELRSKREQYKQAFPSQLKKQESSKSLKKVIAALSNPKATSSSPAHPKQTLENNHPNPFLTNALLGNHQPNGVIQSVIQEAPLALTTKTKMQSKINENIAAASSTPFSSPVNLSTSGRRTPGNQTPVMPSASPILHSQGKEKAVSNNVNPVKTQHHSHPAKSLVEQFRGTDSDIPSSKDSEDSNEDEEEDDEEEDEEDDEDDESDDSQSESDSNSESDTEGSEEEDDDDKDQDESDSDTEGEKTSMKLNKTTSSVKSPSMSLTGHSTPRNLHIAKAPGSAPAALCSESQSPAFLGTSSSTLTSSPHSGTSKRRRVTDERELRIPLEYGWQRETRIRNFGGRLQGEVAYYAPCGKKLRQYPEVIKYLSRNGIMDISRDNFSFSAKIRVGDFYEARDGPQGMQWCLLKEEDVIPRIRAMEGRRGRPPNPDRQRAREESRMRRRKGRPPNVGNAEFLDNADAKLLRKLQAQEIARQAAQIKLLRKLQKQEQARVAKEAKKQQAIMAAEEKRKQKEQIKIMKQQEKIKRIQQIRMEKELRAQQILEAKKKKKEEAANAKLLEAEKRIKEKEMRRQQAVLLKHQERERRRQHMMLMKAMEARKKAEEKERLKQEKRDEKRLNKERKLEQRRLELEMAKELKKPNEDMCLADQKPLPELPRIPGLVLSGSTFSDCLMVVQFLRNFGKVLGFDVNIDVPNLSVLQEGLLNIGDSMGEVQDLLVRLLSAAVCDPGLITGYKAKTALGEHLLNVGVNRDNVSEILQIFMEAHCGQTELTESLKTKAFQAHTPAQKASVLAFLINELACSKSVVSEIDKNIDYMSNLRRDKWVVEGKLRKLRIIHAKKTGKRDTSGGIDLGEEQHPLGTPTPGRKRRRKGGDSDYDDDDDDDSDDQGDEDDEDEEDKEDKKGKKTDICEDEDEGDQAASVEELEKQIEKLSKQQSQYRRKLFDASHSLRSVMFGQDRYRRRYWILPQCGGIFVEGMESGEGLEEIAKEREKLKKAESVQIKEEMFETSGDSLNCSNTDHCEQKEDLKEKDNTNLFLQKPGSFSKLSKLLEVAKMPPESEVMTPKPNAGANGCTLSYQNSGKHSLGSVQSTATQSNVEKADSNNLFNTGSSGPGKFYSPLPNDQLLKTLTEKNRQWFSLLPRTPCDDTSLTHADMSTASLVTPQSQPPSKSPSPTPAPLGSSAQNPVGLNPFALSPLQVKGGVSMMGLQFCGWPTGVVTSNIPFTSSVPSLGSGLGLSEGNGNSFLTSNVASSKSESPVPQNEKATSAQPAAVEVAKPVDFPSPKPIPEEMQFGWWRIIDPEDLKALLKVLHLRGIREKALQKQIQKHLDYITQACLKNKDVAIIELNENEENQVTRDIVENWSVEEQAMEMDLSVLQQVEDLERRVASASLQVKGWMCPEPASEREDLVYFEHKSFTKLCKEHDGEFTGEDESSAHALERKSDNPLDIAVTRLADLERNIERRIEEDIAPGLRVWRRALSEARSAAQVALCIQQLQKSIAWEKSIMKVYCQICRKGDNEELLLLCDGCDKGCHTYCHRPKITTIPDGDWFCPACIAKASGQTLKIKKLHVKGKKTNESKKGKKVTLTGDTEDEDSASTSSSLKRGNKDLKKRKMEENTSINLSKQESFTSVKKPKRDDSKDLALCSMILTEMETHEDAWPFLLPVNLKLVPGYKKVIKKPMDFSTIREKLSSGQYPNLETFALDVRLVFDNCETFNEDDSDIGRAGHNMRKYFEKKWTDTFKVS
# Test: qHTS Assay for Inhibitors of BAZ2B; further: nearly all actives have a fitted effect of over 60% in size
# Conditions: AlphaScreen BAZ2B-H3K14Ac peptide displacement; activity change, negative = inhibition: at 114 µM (top of the series) unless noted
# Procedure, shortened: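 Complex of BAZ2B and biotin-H3K14Ac (50 nM apiece) forms over 30 min at RT, then faces library compounds up to 110 uM for another 30 min; AlphaScreen beads added, 20 min dark incubation, luminescence read.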
# On the % scale 0 is the no-effect control and ±100 the full control effect; potency means the concentration at half of the fitted maximal effect; tags describe the fitted curve by direction and shape.
SMILES,Potency,"activity change, negative = inhibition"
O=C1/C(=C/c2cccc(Cl)c2)SC(=S)N1CCC(=O)N1CCCCC1CCO (stereo unspecified),active: 28.2 µM,–
COc1ccc(C(=O)NCC(=O)N2CCCC(C(F)(F)F)C2)cc1OC (stereo unspecified),–,inactive: -28.3%
CCOc1cc(/C=N/N2CCOCC2)ccc1OCc1ccc(C(=O)OC)o1,"inconclusive: 79.4 µM [inhibitor, single point]",–
COc1ccc(-n2nc([N+](=O)[O-])c(=NCc3cccnc3)n2O)cc1,–,inactive: -8.99%
CC(C)C(NS(=O)(=O)c1cc(C(=O)O)ccc1Cl)C(=O)O (stereo unspecified),"inconclusive: 89.1 µM [inhibitor, single point]",–
Cn1c(CNC(=O)c2ccc(F)cc2)nc2ccccc21,–,inactive: -3.73%
O=C(CSc1ncnc2nc[nH]c12)c1ccc(Cl)cc1,"inconclusive: 89.1 µM [inhibitor, single point]",–
NC(=O)c1ccc(NC(=O)CN2CCN(c3ccccc3)CC2)cc1,"inconclusive: 100 µM [inhibitor, single point]",–
CC(=O)NN1C(=O)/C(=C/c2ccc(C(C)C)cc2)SC1=S,active: 44.7 µM,–
COc1ccc(-c2c3c(cc4ncn(Cc5ccccc5)c24)COC3=O)cc1,"inconclusive: 89.1 µM [inhibitor, single point]",–
Cc1ccc(/C=C/C(=O)NCCc2ccccc2)o1,"inconclusive: 89.1 µM [inhibitor, single point]",–
CCCCCCCNC(=O)C1(CC2CC(c3ccc(Cl)cc3)=NO2)CCN(C(=O)CCCCCBr)CC1 (stereo unspecified),–,inactive: -13.9% [at 57.1 µM]
Cc1cc2oc(=O)sc2cc1NS(=O)(=O)c1cccc2cccnc12,–,inactive: -13.1%
CN1CCN(C(c2cccc(Cl)c2)c2ccccc2Cl)CC1 (stereo unspecified),"inconclusive: 50.1 µM [inhibitor, partial curve]",–
COCCNc1ncnc2c1c(-c1ccccc1)cn2-c1ccc(C)c(Cl)c1,–,inactive: -8.73%
COc1cccc(-n2c(COc3ccc(C)cc3)nnc2SCC(=O)O)c1,"inconclusive: 79.4 µM [inhibitor, single point]",–
COc1ccc(C2=NOC3(CC(=O)N(c4ccc5ccccc5c4)C3=O)C2)c(OC)c1 (stereo unspecified),"inconclusive: 89.1 µM [inhibitor, single point]",–
C[C@H](NC(=O)c1nc[nH]c1C(=O)N[C@@H](C)C(=O)OC(C)(C)C)C(=O)OC(C)(C)C,"inconclusive: 89.1 µM [inhibitor, single point]",–
C/C(=C\C=C(C#N)C#N)c1cc(C#N)c(N)o1,active: 25.1 µM,–
COc1ccccc1CNC(=O)CCc1c(C)nn(-c2ccc(N3CCOCC3)nn2)c1C,–,inactive: -3.3%
CCN1/C(=C/C=C/C=C/c2sc3ccccc3[n+]2CC)Sc2ccccc21,active: 11.2 µM,–
OC1CCN(C(=S)Nc2ccc(Nc3ccccc3)cc2)CC1,"inconclusive: 39.8 µM [inhibitor, partial curve]",–
N/C(=N\OC(=O)c1ccccc1[N+](=O)[O-])c1cccnc1,–,inactive: 10.9%

SMILES,Potency,"activity change, negative = inhibition"
O=[N+]([O-])c1ccc(CNc2ccc(Cl)cc2)s1,active: 35.5 µM,–
CCCOC(=O)Nc1ccc(N2CCCCC2)cc1,active: 70.8 µM,–
Cc1sc(NC(=O)C2CCCCC2C(=O)O)c(C(N)=O)c1-c1ccc(C(C)(C)C)cc1 (stereo unspecified),"inconclusive: 100 µM [inhibitor, single point]",–
O=C1CSC(c2ccc([N+](=O)[O-])cc2)N1CCN1CCCCC1 (stereo unspecified),"inconclusive: 3.98 µM [inhibitor, full curve, poor fit]",–
COc1cc([N+](=O)[O-])cc(CN2CCCCC2)c1O,"inconclusive: 89.1 µM [inhibitor, partial curve]",–
O=C(CCc1nc2cccnc2n1Cc1ccccc1)N1CCOCC1,"inconclusive: 89.1 µM [inhibitor, single point]",–
CC(C)(NO)/C(=N/O)c1cccs1,active: 44.7 µM,–
Cc1ccc(C(=O)NC(=S)NCC2CCCO2)cc1Br (stereo unspecified),"inconclusive: 79.4 µM [inhibitor, single point]",–
Cc1cc(NS(=O)(=O)c2ccccc2)c([N+](=O)[O-])cc1C,"inconclusive: 50.1 µM [inhibitor, partial curve]",–
CCOc1ccc(NC(=O)NC2(C(=O)NCc3ccco3)CCCCC2)cc1,"inconclusive: 79.4 µM [inhibitor, single point]",–
COc1cccc2c1ncc1c(-c3ccc(C)cc3)nn(-c3cccc([N+](=O)[O-])c3)c12,–,inactive: 2.44%
Cc1cccc(-c2nnc(SCc3cc(=O)c4cccc(Cl)c4[nH]3)n2C)c1,–,inactive: -1.97%
O=C(NCCc1ccccc1)c1ccc2c(c1)N(Cc1ccc(F)cc1)C(=O)c1ccccc1S2(=O)=O,"inconclusive: 89.1 µM [inhibitor, single point]",–
Cc1cc(C)n2nc(C(=O)NNC(=O)c3ccc(Cl)cc3)nc2n1,active: 89.1 µM,–
CN(CC(=O)Nc1sccc1C#N)C1CCCCC1,"inconclusive: 79.4 µM [inhibitor, single point]",–
CC(=O)N[C@@H](C)c1nc2ccccc2n1CCNC(=O)[C@H]1CCCN1c1nc(CN2CCCCC2)cs1,"inconclusive: 79.4 µM [inhibitor, single point]",–
COc1ccc2oc(C(=O)NCC(Cc3ccccc3)N(C)C)c(C)c2c1 (stereo unspecified),"inconclusive: 70.8 µM [inhibitor, single point]",–
Cc1nn(-c2ccccc2)c2c1C(c1ccc(F)cc1)C(C#N)=C(N)O2 (stereo unspecified),"inconclusive: 44.7 µM [inhibitor, partial curve]",–
Cc1ccccc1C(=O)c1cccn1CC(=O)NCC(C)c1ccccc1 (stereo unspecified),"inconclusive: 79.4 µM [inhibitor, partial curve]",–
Cc1cccc(N(CC(O)Cn2c3ccccc3c3ccccc32)S(=O)(=O)c2ccc(F)cc2)c1 (stereo unspecified),–,inactive: -11.4%
COc1ccc(NC(=O)Cn2nnc(C(=O)NCCc3ccccc3)c2N)cc1,"inconclusive: 89.1 µM [inhibitor, single point]",–
CCOc1cc(/C=C2\C(=O)N(c3cccc(C(F)(F)F)c3)C(=O)c3ccccc32)ccc1O,"inconclusive: 39.8 µM [inhibitor, full curve]",–
CCOC(=O)c1c(C)[nH]c(C)c1C(=O)COC(=O)[C@@H]1CCCN1S(=O)(=O)c1ccc(Cl)cc1,"inconclusive: 89.1 µM [inhibitor, single point]",–
